Measured values published in the supplement of paper PMC4604168 (melanoma cell lines).
Some of the results follow. Repeats are few or missing, and single values can be far off.

How the values were obtained:
Test in all cases: cell count relative to DMSO control; melanoma cells; higher = more viable cells
Settings in all cases: library dose: low library concentration; 72 h
WM115 = test system: WM115
WM1716 = test system: WM1716
WM1745 = test system: WM1745
WM3526 = test system: WM3526
WM3619 = test system: WM3619
WM451Lu = test system: WM451Lu
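Note: cell number obtained by counting DAPI-stained nuclei in high-throughput microscope images with image analysis software, screen run in 1,536-well plates.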

Structure (SMILES)	cell count (WM115)	cell count (WM1716)	cell count (WM1745)	cell count (WM3526)	cell count (WM3619)	cell count (WM451Lu)
O=C(Nc1cc(C(F)(F)F)cc(C(F)(F)F)c1)c1cc(Cl)ccc1O + Cc1nc(Nc2ncc(C(=O)Nc3c(C)cccc3Cl)s2)cc(N2CCN(CCO)CC2)n1 [dasatanib] (first compound 0.016 µM, partner dose 0.004 µM)	76.8%	91.4%	64.4%	123%	90.7%	105%
O=C(O)[C@@H]1[O][Sb](=[O])([O][Sb]2(=[O])[O][C@H]([C@H](O)CO)[C@H](O)[C@H](C(=O)O)[O]2)[O][C@H]([C@H](O)CO)[C@@H]1O (stereo not given in full) [stibogluconate] + CS(=O)(=O)CCNCc1ccc(-c2ccc3ncnc(Nc4ccc(OCc5cccc(F)c5)c(Cl)c4)c3c2)o1 [lapatinib] (first compound 2 µM, partner dose 0.8 µM)	107%	127%	111%	116%	97.8%	97.6%
O=C(O)c1ccc2c(c1)nc(Nc1cccc(Cl)c1)c1ccncc12 + Nc1ncn([C@H]2C[C@H](O)[C@@H](CO)O2)c(=O)n1 [decitabine] (first compound 0.4 µM, partner dose 0.1 µM)	83%	72.9%	96.6%	83.1%	73.5%	88.8%
O=C(Nc1cc(C(F)(F)F)cc(C(F)(F)F)c1)c1cc(Cl)ccc1O + CN(NC(=O)CC(=O)NN(C)C(=S)c1ccccc1)C(=S)c1ccccc1 [STA4783] (first compound 0.016 µM, partner dose 0.006 µM)	79.5%	74.8%	40%	111%	86.6%	92.6%
Cc1cc(N2CCOCC2)cc2[nH]c(-c3c(NC[C@@H](O)c4cccc(Cl)c4)cc[nH]c3=O)nc12 + O=C(Nc1cccc(Cl)c1)Nc1ncc(CCNc2ncnc3ccsc23)s1 [SNS314] (first compound 0.2 µM, partner dose 0.0008 µM)	64.5%	105%	66.9%	68.2%	102%	92%
O=C(Nc1cc(C(F)(F)F)cc(C(F)(F)F)c1)c1cc(Cl)ccc1O + Cn1sc(=O)n(Cc2ccccc2)c1=O [TDZD-8] (first compound 0.016 µM, partner dose 0.4 µM)	98.3%	101%	89.7%	107%	97.2%	106%
O=C(Nc1ccccc1)c1cc([N+](=O)[O-])ccc1Cl + COc1ccc2c(c1)CCC1C2CCC2(C)C(NCCCCCCN3C(=O)C=CC3=O)CCC12 [U73122] (first compound 2 µM, partner dose 0.4 µM)	80.7%	91.1%	89.6%	108%	96%	118%
Cn1nnc2c(C(N)=O)ncn2c1=O [temozolomide] + O=C(O)C(=O)Nc1sc2c(c1C(=O)O)CCNC2 [TCS401] (first compound 2 µM, partner dose 1.66667 µM)	102%	87.5%	87%	117%	124%	121%
Cn1nnc2c(C(N)=O)ncn2c1=O [temozolomide] + Cc1cc(N2CCOCC2)cc2[nH]c(-c3c(NC[C@@H](O)c4cccc(Cl)c4)cc[nH]c3=O)nc12 [BMS536924] (first compound 2 µM, partner dose 0.2 µM)	108%	87.1%	82.8%	106%	85.2%	94.1%
O=C(Nc1cc(C(F)(F)F)cc(C(F)(F)F)c1)c1cc(Cl)ccc1O + C[C@@H](N)c1ccc(C(=O)Nc2ccnc3[nH]ccc23)cc1 [RKI983] (first compound 0.016 µM, partner dose 0.4 µM)	137%	64.3%	90%	114%	104%	111%
O=C(O)[C@@H]1[O][Sb](=[O])([O][Sb]2(=[O])[O][C@H]([C@H](O)CO)[C@H](O)[C@H](C(=O)O)[O]2)[O][C@H]([C@H](O)CO)[C@@H]1O (stereo not given in full) [stibogluconate] + COc1cc(N2CCC(N3CCN(C)CC3)CC2)ccc1Nc1ncc(Cl)c(Nc2ccccc2S(=O)(=O)C(C)C)n1 [NVP-TAE684] (first compound 2 µM, partner dose 0.08 µM)	100%	88.4%	88.6%	87.6%	97.1%	86%
Cn1nnc2c(C(N)=O)ncn2c1=O [temozolomide] + Cc1ccc(NC(=O)c2cccc(N(C)C)c2)cc1NC(=O)c1ccc(O)cc1 [ZM336372] (first compound 2 µM, partner dose 2 µM)	98.1%	75.4%	101%	53.5%	96%	112%
O=C(O)[C@@H]1[O][Sb](=[O])([O][Sb]2(=[O])[O][C@H]([C@H](O)CO)[C@H](O)[C@H](C(=O)O)[O]2)[O][C@H]([C@H](O)CO)[C@@H]1O (stereo not given in full) [stibogluconate] + COc1cc(Nc2ncc(F)c(Nc3ccc4c(n3)NC(=O)C(C)(C)O4)n2)cc(OC)c1OC [Tamatinib] (first compound 2 µM, partner dose 0.4 µM)	96%	101%	56%	84.9%	96.1%	105%
O=C(O)c1ccc2c(c1)nc(Nc1cccc(Cl)c1)c1ccncc12 + Nc1cccc2c1CN(C1CCC(=O)NC1=O)C2=O [lenalidomide] (first compound 0.4 µM, partner dose 1 µM)	90.5%	88%	103%	67.7%	95.8%	95.8%
O=C(Nc1cc(C(F)(F)F)cc(C(F)(F)F)c1)c1cc(Cl)ccc1O + O=C(/C=C/c1cccnc1)NCCCCC1CCN(C(=O)c2ccccc2)CC1 [FK866] (first compound 0.016 µM, partner dose 0.01 µM)	108%	96.3%	88.9%	112%	86.8%	97.6%
O=C(Nc1cc(C(F)(F)F)cc(C(F)(F)F)c1)c1cc(Cl)ccc1O + CS(=O)(=O)CCNCc1ccc(-c2ccc3ncnc(Nc4ccc(OCc5cccc(F)c5)c(Cl)c4)c3c2)o1 [lapatinib] (first compound 0.016 µM, partner dose 0.8 µM)	103%	96.9%	86%	97.9%	97.2%	104%
O=C(O)[C@@H]1[O][Sb](=[O])([O][Sb]2(=[O])[O][C@H]([C@H](O)CO)[C@H](O)[C@H](C(=O)O)[O]2)[O][C@H]([C@H](O)CO)[C@@H]1O (stereo not given in full) [stibogluconate] + O=C(O)C(=O)Nc1sc2c(c1C(=O)O)CCNC2 [TCS401] (first compound 2 µM, partner dose 1.66667 µM)	95.6%	120%	77.8%	103%	98.2%	114%
Cn1nnc2c(C(N)=O)ncn2c1=O [temozolomide] + c1cc(-c2cnn3cc(-c4ccc(OCCN5CCCCC5)cc4)cnc23)ccn1 [Dorsomorphin] (first compound 2 µM, partner dose 0.4 µM)	92.3%	90.8%	94.2%	89.4%	99.5%	105%
O=C(O)[C@@H]1[O][Sb](=[O])([O][Sb]2(=[O])[O][C@H]([C@H](O)CO)[C@H](O)[C@H](C(=O)O)[O]2)[O][C@H]([C@H](O)CO)[C@@H]1O (stereo not given in full) [stibogluconate] + N#Cc1c(O)c2c(-c3ccc(-c4ccccc4O)cc3)csc2[nH]c1=O [A769662] (first compound 2 µM, partner dose 2 µM)	107%	102%	112%	109%	93%	104%
O=C(O)c1ccc2c(c1)nc(Nc1cccc(Cl)c1)c1ccncc12 + CCCCCCCCCCCC1=C(O)C(=O)C=C(O)C1=O [Embelin] (first compound 0.4 µM, partner dose 1.2 µM)	112%	89.9%	88.5%	92.4%	97.6%	103%
O=C(O)[C@@H]1[O][Sb](=[O])([O][Sb]2(=[O])[O][C@H]([C@H](O)CO)[C@H](O)[C@H](C(=O)O)[O]2)[O][C@H]([C@H](O)CO)[C@@H]1O (stereo not given in full) [stibogluconate] + COc1ccc(Cl)c(Nc2nc3ccccc3nc2NS(=O)(=O)c2cccc(NC(=O)C(C)(C)N)c2)c1 [XL147] (first compound 2 µM, partner dose 0.8 µM)	89.2%	94.3%	93.6%	101%	109%	89.6%
Cc1cc(N2CCOCC2)cc2[nH]c(-c3c(NC[C@@H](O)c4cccc(Cl)c4)cc[nH]c3=O)nc12 + COc1ccc(-c2ccc3c(N4CCOCC4)nc(N4C[C@@H](C)O[C@@H](C)C4)nc3n2)cc1CO [KU0063794] (first compound 0.2 µM, partner dose 0.02 µM)	108%	105%	67.5%	94.1%	88.9%	103%
O=C(Nc1cc(C(F)(F)F)cc(C(F)(F)F)c1)c1cc(Cl)ccc1O + CO[C@@H]1[C@H](N(C)C(=O)c2ccccc2)C[C@H]2O[C@]1(C)n1c3ccccc3c3c4c(c5c6ccccc6n2c5c31)C(=O)NC4 [Midostaurin] (first compound 0.016 µM, partner dose 0.08 µM)	67.6%	84%	77.8%	81.6%	102%	89.5%
O=C(O)c1ccc2c(c1)nc(Nc1cccc(Cl)c1)c1ccncc12 + COc1cc2c(Oc3ccc4[nH]c(C)cc4c3F)ncnc2cc1OCCCN1CCCC1 [cediranib] (first compound 0.4 µM, partner dose 0.4 µM)	101%	82%	96.8%	78.7%	102%	80.5%
Cn1nnc2c(C(N)=O)ncn2c1=O [temozolomide] + OCCn1cc(-c2cnc3nnn(Cc4ccc5ncccc5c4)c3n2)cn1 [PF04217903] (first compound 2 µM, partner dose 1 µM)	95.2%	76.7%	83.3%	91.5%	82.8%	91.7%
